# Measured values published in PubChem BioAssay AID463173 (ICCB-Longwood Screening Facility, Harvard Medical School, 2010).
# The campaign covered roughly 52,000 compounds. About 4,300 (8.3%) were called active. Rule as the data show it: active = survival mostly below about 52% (no sharp cut-off); inactive = mostly above about 56%. Some of the results follow.
# Tested on: DeltatarO mutant
# Test: S. aureus survival, RN4220 and DeltatarO strains – OD600, teichoic acid synthesis inhibitors, primary screen (AID 463173)
# Conditions: S. aureus RN4220 wild type/DeltatarO growth, OD600, 18 h, active compounds read low, screened at 18.75 µg/mL (by protocol)
row,Structure (SMILES),survival
1,CCCN(C(=O)c1cc2c(=O)oc3ccccc3c2s1)c1ccc(CC)cc1,active: 31%
2,Cc1ccccc1Nc1cc(C(=O)NCCCN2CCN(c3cccc(Cl)c3)CC2)c2ccccc2n1,inactive: 88%
3,Cc1c(Cl)cccc1NC(=O)N1CCN(C(=O)c2nsc3ccccc23)CC1,inactive: 128%
4,CCc1ccc(NC(=O)c2ccc(CN3CC(=O)N4CCCCC4C3=O)cc2)cc1 (stereo not drawn),inactive: 66%
5,Cc1ccc(C(C)C)c(OCCSc2nc(-c3ccccc3F)nc3cc(=O)[nH]n23)c1,inactive: 83%
6,Cc1c(CCC(=O)NCCc2ccccc2)c(=O)oc2c(C)c(O)ccc12,inactive: 80%
7,Cc1ccc(CCNS(=O)(=O)c2cc(-c3cc(C)no3)ccc2C)cc1,inactive: 96%
8,CCOc1ccc(C(=O)NCc2ccc3c(c2)CCN3C(=O)c2ccc(Cl)cc2)cc1,inactive: 91%
9,O=C(NC1CC(=O)N(c2cccc(F)c2)C1)c1cccs1 (stereo not drawn),inactive: 85%
10,Cc1cccc(-n2ncc(C(=O)N3CCOCC3)c2C2CCN(C(=O)OC(C)(C)C)CC2)c1,inactive: 97%
11,CC(C)N(C(=O)Cn1cc(SCC(=O)Nc2ccccc2F)c2ccccc21)C(C)C,inactive: 60%
12,CC12CN3CC(c4ccccc4)(CN(C1)C3c1ccc(O)cc1)C2=O (stereo not drawn),inactive: 74%
13,Cn1c(=O)oc2cc(S(=O)(=O)NC(Cc3ccccc3)C(=O)Nc3ccc(F)cc3)ccc21 (stereo not drawn),inactive: 84%
14,CCOC(=O)c1c(NC(=O)C(C)Sc2cn(CCNC(=O)c3c(F)cccc3F)c3ccccc23)sc2c1CCC2 (stereo not drawn),inactive: 84%
15,COc1cccc(CNC(=O)c2cc(C)nc3c2c(C)nn3-c2ccc(C)cc2)c1,inactive: 92%
16,CC(=O)OCC1OC(n2ccc3ccccc32)C(OC(C)=O)C(OC(C)=O)C1OC(C)=O (stereo not drawn),inactive: 97%
17,COc1ccc(OC)c(NC(=O)CSc2ccc(-c3cccs3)nn2)c1,inactive: 78%
18,COc1cc(OC)c(NC(=O)C2CCN(S(=O)(=O)c3c(C)noc3/C=C/c3c(C)cc(C)cc3C)CC2)cc1Cl,inactive: 101%
19,Cc1ccc(Cn2c(C(=O)O)c(CNCc3ccc(OC(C)C)cc3)c3ccc(C)cc32)cc1,active: 11%
20,CN(Cc1ccccc1)C(=O)c1cn(C)c2ccc(S(=O)(=O)N3CCCCC3)cc2c1=O,inactive: 80%
21,COc1cccc(OCc2nc3ccccc3n2CCOc2ccc(C)cc2)c1,active: 36%
22,CN(C)c1ccc(CN(Cc2ccco2)C(=O)c2ccc(C(C)(C)C)cc2)cc1,inactive: 55%
23,CCOc1ccccc1NC(=O)NCc1ccc2c(c1)CCN2C(=O)c1ccccc1,inactive: 129%
